{
  "source": "PubChem BioAssay AID1508642",
  "about": "(National Center for Advancing Translational Sciences (NCATS), 2021)",
  "note": "Among all 43,000 compounds or so, about 200 (0.47%) were called active. Another 12% or so got no clear call; they are omitted. The call rests on the fitted dose curve; in most records, active means well fitted cell-killing curve with a large enough effect; inconclusive means small, poorly fitted or top-dose-only effect, or effect the other way; inactive means flat fitted curve, though single readings scatter. The list shows a part of the results. On the % scale 0 is the no-effect control and ±100 the full control effect.",
  "data": [
    {"experiment": "Cell viability qHTS assay in S16 Pmp22-F2sN cells; further: nearly all actives have a fitted effect of over 65% in size", "conditions": "S16 Pmp22-F2sN Schwann cells (luciferase reporters placed in the Pmp22 gene) viability, CellTiter-Glo, 24 h; series mostly up to 57.5 µM; activity change, negative = cytotoxicity: at the top concentration", "in_short": "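S16 Schwann cells carrying the Pmp22-F2sN reporter, seeded in 1536-well format, were exposed to library compounds for 24 h at 37C. Viability was read as CellTiter-Glo luminescence after 15 min at room temperature.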", "values": [
      {"compound": "COc1cccc(CNC(=O)CN2C(=O)CSc3c2c(C)nn3-c2ccccc2)c1", "activity change, negative = cytotoxicity": "inactive: -4.83%"},
      {"compound": "Cc1ccc(-n2c(=O)c3ccc(C(=O)NCc4ccccc4Cl)cc3n(CC(=O)Nc3cccc(F)c3)c2=O)cc1", "activity change, negative = cytotoxicity": "inactive: -0.278%"},
      {"compound": "CN(C)c1ccc(CN(CC2CCCO2)C(=O)c2ccc(Br)cc2)cc1", "note": "(configuration not stated)", "activity change, negative = cytotoxicity": "inactive: 17.8%"},
      {"compound": "Cc1ccc2[nH]c3c(=O)n(CC(=O)N4CCN(c5cccc(C(F)(F)F)c5)CC4)ncc3c2c1", "activity change, negative = cytotoxicity": "inactive: 1.99%"},
      {"compound": "CCOc1ccc(N2C(=O)N(Cc3c(F)cccc3Cl)c3ccccc3S2(=O)=O)cc1", "activity change, negative = cytotoxicity": "inactive: -5.16%"},
      {"compound": "O=C(COC(=O)c1cccc(NC(=O)c2ccc(Br)cc2)c1)c1ccc(Br)cc1", "activity change, negative = cytotoxicity": "inactive: 2.81%"},
      {"compound": "COc1cccc(C(=O)Nc2ccc3nc(N4CCC(C)CC4)cc(C)c3c2)c1", "activity change, negative = cytotoxicity": "inactive: -0.868%"},
      {"compound": "Cc1nn2c(=O)cc(COC(=O)c3cccc(NC(=O)c4ccc(C(C)(C)C)cc4)c3)nc2s1", "activity change, negative = cytotoxicity": "inactive: 7.9%"},
      {"compound": "COc1ccc(C2=CC(c3cccc(C)c3)n3nnnc3N2)cc1", "note": "(configuration not stated)", "activity change, negative = cytotoxicity": "inactive: 9.56%"},
      {"compound": "CCOC(=O)c1c(C)oc2nc(C)nc(NCCc3ccc(SC)cc3)c12", "activity change, negative = cytotoxicity": "inactive: -8.4%"},
      {"compound": "COc1cc(NC(=O)Cn2nc(-c3ccc(C)c(C)c3)ccc2=O)cc(OC)c1", "activity change, negative = cytotoxicity": "inactive: 4.69%"},
      {"compound": "CCN(CC)S(=O)(=O)c1ccc2c(c1)N(CC(=O)Nc1ccc(C)cc1C)C(=O)C1CCCN21", "note": "(configuration not stated)", "activity change, negative = cytotoxicity": "inactive: 6.19%"},
      {"compound": "CC(C)NC(=O)c1ccccc1NC(=O)c1nsc2ccccc12", "activity change, negative = cytotoxicity": "inactive: -1.42%"},
      {"compound": "CCOC(=O)c1[nH]c2c(c1Cc1ccccc1OC)C(=O)CC(c1ccc(OCC)cc1)C2", "note": "(configuration not stated)", "activity change, negative = cytotoxicity": "inactive: -0.956%"},
      {"compound": "COc1ccc(C(=O)CCC(=O)Nc2ccc(OC)c(Cl)c2)cc1", "activity change, negative = cytotoxicity": "inactive: 4.31%"},
      {"compound": "O=C(c1ccco1)N1CCN(c2nc3c(Cl)cccc3s2)CC1", "activity change, negative = cytotoxicity": "inactive: -11.9%"},
      {"compound": "CCN(CC)S(=O)(=O)c1nnc(NC(=O)c2ccc(C(C)C)cc2)s1", "activity change, negative = cytotoxicity": "inactive: -6.02%"},
      {"compound": "O=C(Cn1c(=O)n(-c2ccc(Cl)cc2)c(=O)c2oc3ccccc3c21)Nc1ccccc1", "activity change, negative = cytotoxicity": "inactive: 0.192%"},
      {"compound": "CC1CCN(c2ncnc3c2nnn3C)CC1", "activity change, negative = cytotoxicity": "inactive: -12.4%"},
      {"compound": "Cc1cccc(N2CCN(CCCNC(=O)c3nnc(Cc4c(F)cccc4Cl)o3)CC2C)c1", "note": "(configuration not stated)", "activity change, negative = cytotoxicity": "inactive: -17.5%"},
      {"compound": "COc1cccc(C(=O)Nc2ccccc2-c2nnc(-c3cc(OC)ccc3Br)o2)c1", "activity change, negative = cytotoxicity": "inactive: 0.154%"},
      {"compound": "COc1ccc(C2=C(C)C(=O)N(Cc3ccc(C(=O)Nc4cc(C)ccc4C)cc3)S2(=O)=O)cc1", "activity change, negative = cytotoxicity": "inactive: -4.15%"},
      {"compound": "O=C(Cc1ccc(Cl)cc1)NCC(c1cccs1)S(=O)(=O)c1ccc(F)cc1", "note": "(configuration not stated)", "activity change, negative = cytotoxicity": "inactive: -1.44%"},
      {"compound": "Cn1cnc(S(=O)(=O)N2CCC(C(=O)NCc3ccc(F)cc3)CC2)c1", "activity change, negative = cytotoxicity": "inactive: 4.59%"},
      {"compound": "O=C(Nc1ccc(Cl)cc1)c1cc(S(=O)(=O)N2CCc3ccccc32)ccc1F", "activity change, negative = cytotoxicity": "inactive: -19.9%"},
      {"compound": "Cc1ccc(S(=O)(=O)Nc2nc3n(n2)C(c2ccccc2Cl)C=C(c2ccccc2)N3)cc1", "note": "(configuration not stated)", "activity change, negative = cytotoxicity": "inactive: -5.38%"},
      {"compound": "COc1ccc(-c2nc(Cn3c(SCc4ccccc4F)nc4ccncc43)c(C)o2)cc1OC", "activity change, negative = cytotoxicity": "inactive: -14.8%"},
      {"compound": "O=C(CCS(=O)(=O)c1cc(Br)cc2c1N(C(=O)C1CC1)CC2)Nc1ccc(C(F)(F)F)cc1", "activity change, negative = cytotoxicity": "inactive: 4.81%"},
      {"compound": "CN(Cc1ccccc1)C(=O)C1CCN(S(=O)(=O)c2ccc3nc4c(c(C(=O)O)c3c2)CCCC4)CC1", "activity change, negative = cytotoxicity": "inactive: 7.11%"},
      {"compound": "COc1ccc(CNC(=O)C2CCN(C(=O)N3CC(C)Oc4ccc(C)cc43)CC2)cc1", "note": "(configuration not stated)", "activity change, negative = cytotoxicity": "inactive: -11.2%"},
      {"compound": "Cn1c(=O)c2sccc2n2c(CCC(=O)NCc3ccccc3Cl)nnc12", "activity change, negative = cytotoxicity": "inactive: 17%"},
      {"compound": "CCn1cc(C(=O)NCCc2ccc(C)cc2)c(=O)c2cc(S(=O)(=O)N3CCCCC3)ccc21", "activity change, negative = cytotoxicity": "inactive: 7.85%"},
      {"compound": "CCOc1ccc(C(=O)Nc2cc(-c3cn4cccnc4n3)ccc2C)cc1OCC", "activity change, negative = cytotoxicity": "inactive: 0.0726%"},
      {"compound": "COc1ccccc1C(=O)Nc1c(C(=O)N(C)c2ccccc2)sc2nc(C)cc(C)c12", "activity change, negative = cytotoxicity": "inactive: 1.07%"},
      {"compound": "Cc1cccc(NC(=O)c2oc3ccccc3c2NC(=O)c2cc(=O)c3cc(Cl)ccc3o2)c1", "activity change, negative = cytotoxicity": "inactive: 5.63%"},
      {"compound": "Cn1c(SCC(=O)c2ccc(F)cc2)nnc1-c1ccccc1Br", "activity change, negative = cytotoxicity": "inactive: -1.65%"},
      {"compound": "COc1cccc(CNC(=O)CSc2ncc(S(=O)(=O)c3ccc(Br)cc3)c(=O)[nH]2)c1", "activity change, negative = cytotoxicity": "inactive: -0.872%"},
      {"compound": "Cc1c(C(=O)Nc2ccc(C(C)C)cc2)sc2nc[nH]c(=O)c12", "activity change, negative = cytotoxicity": "inactive: -29.5%"},
      {"compound": "COc1ccc(CNC(=O)c2ccc3c(c2)CCN3S(=O)(=O)c2ccc(C)cc2)cc1", "activity change, negative = cytotoxicity": "inactive: 0.364%"},
      {"compound": "Cc1ccc(NC(=O)C2CCCN2S(=O)(=O)c2cccc3nsnc23)cc1Cl", "note": "(configuration not stated)", "activity change, negative = cytotoxicity": "inactive: 9.69%"},
      {"compound": "COc1ccc(CNC(=O)CSc2ncc(S(=O)(=O)c3ccc(C)c(Cl)c3)c(=O)[nH]2)cc1", "activity change, negative = cytotoxicity": "inactive: 1.25%"},
      {"compound": "Cc1ccccc1C(=O)N1CCN(CCc2ccccn2)CC1", "activity change, negative = cytotoxicity": "inactive: -4.39%"},
      {"compound": "CC1CCN(S(=O)(=O)c2ccc3c(c2)CCN3C(=O)Nc2ccc(Br)cc2)CC1", "activity change, negative = cytotoxicity": "inactive: 2.47%"},
      {"compound": "CN(C)c1ccc(CNS(=O)(=O)c2ccc3[nH]c4c(c3c2)CCCCC4)cc1", "activity change, negative = cytotoxicity": "inactive: -0.0291%"},
      {"compound": "COc1ccc(Br)cc1CNC(=O)c1nn(-c2ccc(C)cc2)c(=O)c2c1c1ccccc1n2C", "activity change, negative = cytotoxicity": "inactive: -2.55%"},
      {"compound": "Cc1ccc(CNC(=O)c2c(O)nc3c(C)cccn3c2=O)cc1", "activity change, negative = cytotoxicity": "inactive: -1.96%"},
      {"compound": "Cc1nc2ccc(S(=O)(=O)NC(CC(C)C)C(=O)N3CCN(c4ccc(F)cc4)CC3)cc2s1", "note": "(configuration not stated)", "activity change, negative = cytotoxicity": "inactive: -16.3%"}
    ]}
  ]
}
